Measured values reported in PubChem BioAssay AID743279 (National Center for Advancing Translational Sciences (NCATS), 2014).
The campaign covered roughly 360,000 compounds. About 17,000 (4.7%) were called active. The inconclusive results got no clear call from the source; some entries with a clear call stand among them for comparison. No stated cut-off is given here; in the data, active means activity change below about -50%; inconclusive means mostly about -30% to -49%; inactive means weaker than that.

test: qHTS for Inhibitors of Inflammasome Signaling: IL-1-beta AlphaLISA Primary Screen; settings: THP-1 LPS/ATP IL-1B secretion, 16 h; at 57.5 µM, hits give low values
Method in brief: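 THP-1 cells pretreated 1 hr with compounds (up to 57.5 uM final), then stimulated with LPS (250 ng/mL final) plus ATP (1.25 mM final); secreted IL-1B measured by AlphaLISA after 16 hr, decreased signal indicating inhibition.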
On the % scale 0 is the no-effect control and ±100 the full control effect.

Row | SMILES | activity change
1 | Cn1c(=O)c2c(nc(NCCc3ccccc3)n2Cc2ccccc2)n(C)c1=O | inconclusive: -48.6%
2 | O=C1CC(N2C(=O)/C(=C/C=C/c3ccccc3)SC2=S)C(=O)N1c1ccccc1 (stereo not drawn) | inconclusive: -30.8%
3 | COc1ccc(C(=O)Nc2ccccc2C(=O)NCCN2CCOCC2)cc1 | inconclusive: -42.8%
4 | O=C(c1ccc(-c2nc3ccccc3s2)o1)N1CCN(c2ccccc2O)CC1 | inactive: 19.6%
5 | CC(C)(O)C(=O)NN(C(=O)c1ccccc1)c1cccc(Br)c1 | inactive: -15.5%
6 | Cn1cccc1C(C#N)c1ncc(C(F)(F)F)cc1Cl (stereo not drawn) | inactive: -2.41%
7 | COc1cccc(C(=O)NCC2(c3ccccc3)CCCC2)c1 | inconclusive: -38.2%
8 | Cc1c(C(=O)NCc2ccc(F)cc2)sc(=O)n1Cc1ccccc1F | inconclusive: -44.4%
9 | O=C(NCc1ccco1)C1Cc2ccccc2CN1S(=O)(=O)c1ccccc1F (stereo not drawn) | inconclusive: -43.7%
10 | CCCN(CC(=O)Nc1ccccc1C)C(=O)c1cnc(C)cn1 | inactive: 12.3%
11 | CCCCN(CCCC)CCCNC(=O)CN1C(=O)COc2ccc(S(=O)(=O)N3CCC(C)CC3)cc21 | inconclusive: -39.8%
12 | COc1ccc(/C=N/N2CCN(Cc3ccc(C)cc3)CC2)cc1Br | inactive: -8.84%
13 | Cc1ccc(NC(=O)CS(=O)CC(=O)NCCCc2ccccc2)cc1Cl (stereo not drawn) | inconclusive: -40.5%
14 | CN(CC(=O)Nc1cccc(Cl)c1)S(=O)(=O)/C=C/c1ccccc1 | inconclusive: -38.4%
15 | Cc1ccc(C)c(NC(=S)NCCSc2ccc(Cl)cc2)c1 | inconclusive: -43.6%
16 | Cc1ccc(-n2cc(CNCCCn3ccnc3C)c(-c3ccc(F)cc3)n2)cc1 | active: -83.5%
17 | COCC1CCN(C(=O)c2ccc3nc(Cc4cccc(Cl)c4)oc3c2)CC1 | inactive: -8.81%
18 | Cc1sc(NC(=O)c2ccco2)c(C(c2cccnc2)N2CCN(c3ccc(F)cc3)CC2)c1C (stereo not drawn) | inconclusive: -30.3%
19 | CN(C)Cc1ccccc1Sc1ccc2c(c1)CCCC2 | inconclusive: -47.2%
20 | O=C(C=C(C(=O)c1ccccc1)c1ccccc1)c1ccccc1 | inconclusive: -37.4%
21 | O=C(c1cc([N+](=O)[O-])ccc1Cl)N1c2ccccc2Sc2ccccc21 | inconclusive: -42.3%
22 | CSCCC(NC(=O)c1ccc(Cl)cc1Cl)C(=O)N1CCN(C(=O)c2ccccc2)CC1 (stereo not drawn) | inconclusive: -31.2%

Row | SMILES | activity change
23 | Cc1ccc(N(CC(=O)N/N=C/c2ccc(OC3CSC3)cc2)S(=O)(=O)c2ccccc2)cc1 | inactive: -1.5%
24 | CCOC(=O)C(=CNc1ccc(NC2=NCC(C)(C)S2)cc1)C(=O)OCC | inconclusive: -38.9%
25 | Cc1cn(COC/C=C/c2ccccc2)c(=O)[nH]c1=O | inconclusive: -49.3%
26 | O=C(CC1C(=O)NCCN1Cc1cccc(F)c1)NC1CCC1 (stereo not drawn) | active: -61%
27 | Cn1nc(C(=O)N2CCN(c3ccccc3)CC2)c2c1-c1ccccc1S(=O)(=O)C2 | inconclusive: -37.1%
28 | Cc1sc2nc(C3CC3)nc(SCC(=O)N3CCc4ccccc4C3)c2c1C | active: -75.5%
29 | CCn1c(COc2cccc(C)c2)nnc1SCC(=O)NC1CCCC1 | inactive: 11.7%
30 | Cc1ccccc1OCC(=O)N/N=C/c1ccc(N2CCOCC2)o1 | inconclusive: -40.8%
31 | CSCCC(c1nc2ccccc2[nH]1)n1c(=O)c(-c2ccco2)nc2ccccc21 (stereo not drawn) | inconclusive: -47.2%
32 | CCN1CCN(c2cc(C)c3cc(NC(=S)N4CC(C)CC(C)C4)ccc3n2)CC1 (stereo not drawn) | active: -89.1%
33 | COc1ccc(NC(=S)N(CCCN2CCCC(C)C2)Cc2cccs2)cc1 (stereo not drawn) | inactive: -23.2%
34 | CC1CCC(NC(=O)c2cc(C3CC3)nn2-c2ccccc2)CC1 (stereo not drawn) | inconclusive: -30.4%
35 | CCOC(=O)NC(=O)CSc1nc(-c2ccc(C)c(C)c2)cn1-c1ccccc1 | active: -60.9%
36 | FC(F)(F)c1cc(CCN2CCNC[C@@H]2c2ccccc2)cc(C(F)(F)F)c1 | inconclusive: -37.7%
37 | CN1CCN(CC(=O)Nc2cc(N(C)C)nc3ccccc23)CC1 | active: -61.8%
38 | COC(=O)c1ccccc1NC(=O)Nc1cc(C(C)(C)C)on1 | inactive: 0.477%
39 | C=CCC[C@H](Cc1ccc(F)cc1)C(=O)O[C@H](CNC(=O)[C@@H](CC=C)CC(=O)N(CCO)Cc1ccccc1)c1ccccc1 | active: -58.1%
40 | COc1nc(Nc2ccc([N+](=O)[O-])cc2)nc(NC2CCCCC2)n1 | active: -78.4%
41 | Cc1nc(Nc2ccccc2)sc1C(=O)Nc1ccccc1 | active: -65.3%
42 | CC1CN(C(=O)CCNC(=O)c2ccc(Cl)cc2)CC(C)O1 (stereo not drawn) | inactive: 14.4%
43 | Cc1cc(C(=O)COC(=O)COc2ccc(C#N)cc2)c(C)n1C1CC1 | inactive: 0.876%
44 | O=S(c1ccccc1O)S(=O)c1ccccc1O (stereo not drawn) | inconclusive: -35%

Row | SMILES | activity change
45 | O=C(Nc1ccc([N+](=O)[O-])cn1)c1cc(-c2cccc(Cl)c2)nc2ccccc12 | inactive: 0%
46 | Cc1ccc(S(=O)(=O)c2c(N)n(/N=C/c3ccco3)c3nc4ccccc4nc23)cc1C | active: -52.6%
47 | OC1CCCN(Cc2cn(Cc3ccccc3)nc2-c2cc3ccccc3o2)C1 (stereo not drawn) | inconclusive: -49.7%
48 | NNC(=O)COc1ccc(-c2nccc(-c3ccc(F)cc3)n2)cc1 | inconclusive: -46.1%
49 | CCC(C)(C)n1nnnc1CN1CCN(c2nc3cc(OC)ccc3cc2C#N)CC1 | active: -55.5%
50 | C=C(C)c1cccc(C(C)(C)NC(=O)Nc2ccc(Cl)cn2)c1 | inconclusive: -47.4%
51 | O=C(NCc1ccco1)c1ccc([N+](=O)[O-])o1 | active: -61.4%
52 | CCOc1ccc(C(=O)CC(Sc2ccc(C)cc2)C(=O)O)cc1 (stereo not drawn) | inconclusive: -41.1%
53 | N/C(Cc1ccc(Cl)cc1)=N\OC(=O)c1cccc2ccccc12 | inconclusive: -40.6%
54 | CCOC(=O)c1sc(SCC(=O)Nc2ccc(N(C)C)cc2)nc1N | active: -66.6%
55 | Cc1cc(S(=O)(=O)N2CCC3(CC2)OCCO3)c(C)cc1Cl | inactive
56 | COCc1c(C(=O)NC2CCCCC2)sc2cccc(F)c12 | inconclusive: -41.7%
57 | CCN(c1ccc(OC)cc1)S(=O)(=O)c1nnc(NC(=O)CC(C)C)s1 | active: -53.3%
58 | Cc1cc2c3c(c1C)C1(C(=O)N3C(C)(C)CC2C)C(C#N)=C(N)Oc2cc(O)ccc21 (stereo not drawn) | active: -61.9%
59 | Cc1ccc(S(=O)(=O)N(CCC(=O)N2CCOCC2)c2ccccc2)cc1 | inactive: 7.79%
60 | O=C(/C=C/c1ccc2ccccc2n1)c1cc(Br)ccc1O | inactive: 44.3%
61 | CCC(COC)Oc1cc(NCc2ccccc2)c2ncn(C(C)C)c2c1 (stereo not drawn) | active: -90.3%
62 | Cc1ccc(Nc2nc(Oc3ccc(OCc4ccccc4)nn3)nc(N3CCOCC3)n2)cc1 | inconclusive: -31.5%
63 | COCCNC(=S)N(CCCN(C)C)Cc1cc2cc3c(cc2[nH]c1=O)OCCO3 | inconclusive: -37.2%
64 | COC(=O)[C@H](Cc1ccccc1)NC(=O)Cn1cnc2c(NCc3ccccc3)ncnc21 | inconclusive: -47.4%
65 | CCC1CCCCN1CCCNC(=O)CNC(=O)c1nn(-c2ccc(OC)c(Cl)c2)c(=O)c2ccccc12 (stereo not drawn) | inconclusive: -44.3%
66 | COc1cc(/C=C/C(=O)c2ccc3c(c2)OCCO3)cc(Br)c1OCC(=O)N(C)C | active: -104%

Row | SMILES | activity change
67 | COC(=O)c1sccc1NC(=O)Nc1ccc(OC)cc1OC | inconclusive: -33.7%
68 | CCOC(=O)C(N)CSC1CC(=O)N(CCc2ccccc2)C1=O (stereo not drawn) | inactive: 0%
69 | Cc1ccccc1C(=O)NC(=S)NC1CCSC1=O (stereo not drawn) | inactive: -4.55%
70 | CC(C)=CCCC(C)CN1CCC(n2nccc2NC(=O)C2CCCC2)CC1 (stereo not drawn) | inconclusive: -44.2%
71 | O=C(CCNC(=O)c1ccc([N+](=O)[O-])cc1)Nc1cccc(S(=O)(=O)N2CCCCC2)c1 | inconclusive: -34.1%
72 | COc1ccc(C(CCNCc2ccc(OC(C)C)cc2)c2ccccc2OC)cc1 (stereo not drawn) | active: -88.8%
73 | CC(NC(=O)C1CCN(CCOc2ccc(Cl)cc2)CC1)c1cccc2ccccc12 (stereo not drawn) | inconclusive: -35.7%
74 | COc1ccc(-c2nn(-c3ccccc3)cc2/C=N/N=C(N)N)cc1OC | inconclusive: -44.3%
75 | O=C(/C=C/c1ccccc1)Nc1ccc(Cl)cn1 | inactive: 0%
76 | NS(=O)(=O)c1ccc(N2N=C(c3ccccc3)CC2c2cccc(Br)c2)cc1 (stereo not drawn) | active: -57.3%
77 | O=C(COc1ccc(/C=N/NC(=O)c2cc3ccccc3o2)cc1Br)Nc1ccccc1 | active: -117%
78 | C=C(C)C(=O)Nc1nnc(-c2cccs2)s1 | inactive: 31%
79 | CCOC(Cn1c(SCc2cc(C(C)=O)ccc2OC)nc2ccccc2c1=O)OCC | inactive: 17.4%
80 | O=C(CCc1nc(-c2ccccc2)no1)NCc1ccccc1CN1CCOCC1 | inactive: 37.5%
81 | O=c1[nH]c2ccccc2n1CCCSCCCn1c(=O)[nH]c2ccccc21 | inconclusive: -43.9%
82 | O=C(/C(=C/c1ccccc1)n1cncn1)c1ccc(Cl)cc1Cl | active: -100%
83 | Cc1ccc(C(=O)NCc2ccccc2F)cc1S(=O)(=O)N1CCCC1 | inactive: 8.66%
84 | CCN(CC)c1nc2ccccc2nc1C(C#N)C(=O)NCCc1ccccc1 (stereo not drawn) | inconclusive: -38.9%
85 | Cc1ccc(S(=O)(=O)NCc2ccccc2)cc1C(=O)N1CC(C)CC(C)C1 (stereo not drawn) | inactive: 6.55%
86 | Cc1nc(-c2ccc(F)cc2)c(CC(=O)N(C)CC(=O)Nc2ccccc2Cl)s1 | inactive: 0%
87 | Clc1ccc(CNc2nc(CN3CCOCC3)nc3scc(-c4ccccc4)c23)cc1 | inconclusive: -46.5%
88 | COc1cccc(/C=C2\SC(=S)N(CCCC(=O)N3CCCC3)C2=O)c1 | active: -90.6%
